In the supplement of paper PMC10037445:
Over roughly 2,900 compounds, “IRF Lucia reporter activity, fold change vs agonist alone” has its median near 0.9; the highest 2% begin near 2.8. The list shows a part of the results.

Legend:
RAW-Dual [1] = assay: IRF Lucia reporter activity, fold change vs agonist alone; cytotoxicity flag (confluency mask): cytotoxic (confluency <70% of control); higher = enhanced IRF activity
Summary of the method: (§1)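 Supernatant from RAW-Dual macrophages was read after 20 hours for IRF by QuantiLuc luminescence and for NF-κB by QuantiBlue absorbance at 620 nm. The cells (50,000 cells/well in DMEM, 384-well plates, 37 °C, 5% CO2) had received 50 nL of library stock by pin tool and, 1 h later, a PRR agonist. Reporter activity is expressed relative to agonist-alone wells as fold change, and wells were flagged cytotoxic if IncuCyte confluency was under 70% of agonist controls in both mask sets.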

RAW-Dual [2] = assay: IRF Lucia reporter activity, fold change vs agonist alone; cytotoxicity flag (confluency mask): not cytotoxic; higher = enhanced IRF activity
Summary of the method: as §1

RAW-Dual [3] = assay: IRF Lucia reporter activity, fold change vs agonist alone; higher = enhanced IRF activity; settings: library stock concentration (final ~1000-fold dilution): 10 mM, agonist: MPLA (TLR4) […]
Summary of the method: as §1

[4] = agonist: 3'3'-cGAMP (STING) 10 ug/mL
[5] = cytotoxicity flag (confluency mask): not cytotoxic

C=C(C)C1CCC2(C(=O)O)CCC3(C)C(CCC4C5(C)CCC(OC(=O)CC(C)(C)C(=O)O)C(C)(C)C5CCC43C)C12 (stereo unspecified) (library stock concentration (final ~1000-fold dilution): 10 mM)
IRF Lucia reporter activity (RAW-Dual [1]; [4]): 1.18
IRF Lucia reporter activity (RAW-Dual [1]; agonist: LPS (TLR4) 0.1 ug/mL): 0.86

CC(C)NCCCn1c(Sc2cc3c(cc2I)OCO3)nc2c(N)ncnc21 (library stock concentration (final ~1000-fold dilution): 10 mM)
IRF Lucia reporter activity (RAW-Dual [2]; [4]): 0.411
IRF Lucia reporter activity (RAW-Dual [2]; agonist: LPS (TLR4) 0.1 ug/mL): 1.42

Cc1cccc(Nc2nc(-c3ccncc3)cs2)c1
IRF Lucia reporter activity (RAW-Dual [3]; [5]): 0.644

Cc1cccc(Nc2nc(-c3ccncc3)cs2)c1 (library stock concentration (final ~1000-fold dilution): 10 mM)
IRF Lucia reporter activity (RAW-Dual [2]; [4]): 0.0993
IRF Lucia reporter activity (RAW-Dual [2]; agonist: LPS (TLR4) 0.1 ug/mL): 0.805

CC1(C)CC(=O)c2c(C(F)(F)F)nn(-c3ccc(C(N)=O)c(NC4CCC(O)CC4)c3)c2C1 (stereo unspecified) (library stock concentration (final ~1000-fold dilution): 10 mM)
IRF Lucia reporter activity (RAW-Dual [2]; [4]): 1.07
IRF Lucia reporter activity (RAW-Dual [2]; agonist: LPS (TLR4) 0.1 ug/mL): 0.598

CC1(C)CC(=O)c2c(C(F)(F)F)nn(-c3ccc(C(N)=O)c(NC4CCC(O)CC4)c3)c2C1 (stereo unspecified)
IRF Lucia reporter activity (RAW-Dual [3]; [5]): 1.11

C=C(C)CSc1nnc2c(n1)[nH]c1ccccc12 (library stock concentration (final ~1000-fold dilution): 10 mM)
IRF Lucia reporter activity (RAW-Dual [2]; [4]): 0.921
IRF Lucia reporter activity (RAW-Dual [2]; agonist: LPS (TLR4) 0.1 ug/mL): 1.16

COCCOc1cnc2ccn(C(C)c3nnc4c(F)cc(-c5cnn(C)c5)cn34)c(=O)c2c1 (stereo unspecified) (library stock concentration (final ~1000-fold dilution): 10 mM)
IRF Lucia reporter activity (RAW-Dual [2]; [4]): 0.911
IRF Lucia reporter activity (RAW-Dual [2]; agonist: LPS (TLR4) 0.1 ug/mL): 0.469

O=c1ncnc2[nH][nH]cc1-2
IRF Lucia reporter activity (RAW-Dual [3]; [5]): 0.976

O=c1ncnc2[nH][nH]cc1-2 (library stock concentration (final ~1000-fold dilution): 10 mM)
IRF Lucia reporter activity (RAW-Dual [2]; [4]): 1.04
IRF Lucia reporter activity (RAW-Dual [2]; agonist: LPS (TLR4) 0.1 ug/mL): 0.962

CC(C)(C)NC(=O)c1cncn1C1CCN(c2ccc(-c3nnc(C(F)(F)F)o3)cn2)CC1 (library stock concentration (final ~1000-fold dilution): 10 mM)
IRF Lucia reporter activity (RAW-Dual [2]; [4]): 1.33
IRF Lucia reporter activity (RAW-Dual [2]; agonist: LPS (TLR4) 0.1 ug/mL): 3.77

O=C(/C=C/c1ccc(O)cc1)c1ccccc1 (library stock concentration (final ~1000-fold dilution): 10 mM)
IRF Lucia reporter activity (RAW-Dual [1]; [4]): 0.0303
IRF Lucia reporter activity (RAW-Dual [1]; agonist: LPS (TLR4) 0.1 ug/mL): 0.0523

CC(C)Cc1ccc(C(C)C(=O)NS(C)(=O)=O)cc1 (stereo unspecified) (library stock concentration (final ~1000-fold dilution): 10 mM)
IRF Lucia reporter activity (RAW-Dual [2]; [4]): 0.9
IRF Lucia reporter activity (RAW-Dual [2]; agonist: LPS (TLR4) 0.1 ug/mL): 0.729

O=c1c(O)c(-c2ccccc2)oc2cc(O)cc(O)c12 (library stock concentration (final ~1000-fold dilution): 10 mM)
IRF Lucia reporter activity (RAW-Dual [2]; [4]): 0.623
IRF Lucia reporter activity (RAW-Dual [2]; agonist: LPS (TLR4) 0.1 ug/mL): 0.314

O=c1c(O)c(-c2ccccc2)oc2cc(O)cc(O)c12
IRF Lucia reporter activity (RAW-Dual [3]; [5]): 0.745

NC(=O)c1ccc2[nH]c(-c3ccc(Oc4ccc(Cl)cc4)cc3)nc2c1 (library stock concentration (final ~1000-fold dilution): 10 mM)
IRF Lucia reporter activity (RAW-Dual [2]; [4]): 0.242
IRF Lucia reporter activity (RAW-Dual [2]; agonist: LPS (TLR4) 0.1 ug/mL): 0.848

CC(=O)O.NCc1ccc(S(N)(=O)=O)cc1 (library stock concentration (final ~1000-fold dilution): 10 mM)
IRF Lucia reporter activity (RAW-Dual [2]; [4]): 1.01
IRF Lucia reporter activity (RAW-Dual [2]; agonist: LPS (TLR4) 0.1 ug/mL): 0.97

CC(=O)O.NCc1ccc(S(N)(=O)=O)cc1
IRF Lucia reporter activity (RAW-Dual [3]; [5]): 1.05

COc1ccc(CCCOC(Cn2ccnc2)c2ccc(OC)cc2)cc1.Cl (stereo unspecified) (library stock concentration (final ~1000-fold dilution): 10 mM)
IRF Lucia reporter activity (RAW-Dual [2]; [4]): 0.548
IRF Lucia reporter activity (RAW-Dual [2]; agonist: LPS (TLR4) 0.1 ug/mL): 0.881

NC(=O)c1cccc2cn(-c3ccc(C4CCCNC4)cc3)nc12 (stereo unspecified) (library stock concentration (final ~1000-fold dilution): 10 mM)
IRF Lucia reporter activity (RAW-Dual [2]; [4]): 0.52
IRF Lucia reporter activity (RAW-Dual [2]; agonist: LPS (TLR4) 0.1 ug/mL): 0.454

NC(=O)c1cccc2cn(-c3ccc(C4CCCNC4)cc3)nc12 (stereo unspecified)
IRF Lucia reporter activity (RAW-Dual [3]; [5]): 0.595

CCN1/C(=C/C(C)=O)Sc2ccc(OC)cc21 (library stock concentration (final ~1000-fold dilution): 10 mM)
IRF Lucia reporter activity (RAW-Dual [2]; [4]): 0.606
IRF Lucia reporter activity (RAW-Dual [2]; agonist: LPS (TLR4) 0.1 ug/mL): 0.533

CCN1/C(=C/C(C)=O)Sc2ccc(OC)cc21
IRF Lucia reporter activity (RAW-Dual [3]; [5]): 0.557

CCCCC(C=O)NC(=O)C(CC(C)C)NC(=O)C(CC(C)C)NC(C)=O (stereo unspecified) (library stock concentration (final ~1000-fold dilution): 10 mM)
IRF Lucia reporter activity (RAW-Dual [2]; [4]): 0.827
IRF Lucia reporter activity (RAW-Dual [2]; agonist: LPS (TLR4) 0.1 ug/mL): 2.25

CCCCC(C=O)NC(=O)C(CC(C)C)NC(=O)C(CC(C)C)NC(C)=O (stereo unspecified)
IRF Lucia reporter activity (RAW-Dual [3]; [5]): 2.59

O=C(NOCC(O)CO)c1ccc(F)c(F)c1Nc1ccc(I)cc1F (stereo unspecified) (library stock concentration (final ~1000-fold dilution): 10 mM)
IRF Lucia reporter activity (RAW-Dual [2]; [4]): 0.903
IRF Lucia reporter activity (RAW-Dual [2]; agonist: LPS (TLR4) 0.1 ug/mL): 3.61

O=C(NOCC(O)CO)c1ccc(F)c(F)c1Nc1ccc(I)cc1F (stereo unspecified)
IRF Lucia reporter activity (RAW-Dual [3]; [5]): 3.52

CCCCOc1ccc(CC(=O)NO)cc1
IRF Lucia reporter activity (RAW-Dual [3]; [5]): 1.01

CCCCOc1ccc(CC(=O)NO)cc1 (library stock concentration (final ~1000-fold dilution): 10 mM)
IRF Lucia reporter activity (RAW-Dual [2]; [4]): 0.25
IRF Lucia reporter activity (RAW-Dual [2]; agonist: LPS (TLR4) 0.1 ug/mL): 0.826

Oc1c(Cl)cc(Cl)cc1Sc1cc(Cl)cc(Cl)c1O (library stock concentration (final ~1000-fold dilution): 10 mM)
IRF Lucia reporter activity (RAW-Dual [1]; [4]): 0.606
IRF Lucia reporter activity (RAW-Dual [1]; agonist: LPS (TLR4) 0.1 ug/mL): 1.09

Oc1c(Cl)cc(Cl)cc1Sc1cc(Cl)cc(Cl)c1O
IRF Lucia reporter activity (RAW-Dual [3]; cytotoxicity flag (confluency mask): cytotoxic (confluency <70% of control)): 1.11

Cc1cc(C)cc(NC(=O)Cc2ccc(OC(C)(C)C(=O)O)cc2)c1 (library stock concentration (final ~1000-fold dilution): 10 mM)
IRF Lucia reporter activity (RAW-Dual [2]; [4]): 0.948
IRF Lucia reporter activity (RAW-Dual [2]; agonist: LPS (TLR4) 0.1 ug/mL): 0.958

COC(=O)c1c2c(c3ccccc3c1O)OC(C)(C)C=C2 (library stock concentration (final ~1000-fold dilution): 10 mM)
IRF Lucia reporter activity (RAW-Dual [2]; [4]): 0.112
IRF Lucia reporter activity (RAW-Dual [2]; agonist: LPS (TLR4) 0.1 ug/mL): 0.62

CCCCN1CCCCC1C(=O)Nc1c(C)cccc1C.Cl (stereo unspecified) (library stock concentration (final ~1000-fold dilution): 10 mM)
IRF Lucia reporter activity (RAW-Dual [2]; [4]): 0.973
IRF Lucia reporter activity (RAW-Dual [2]; agonist: LPS (TLR4) 0.1 ug/mL): 1.09

CCCCN1CCCCC1C(=O)Nc1c(C)cccc1C.Cl (stereo unspecified)
IRF Lucia reporter activity (RAW-Dual [3]; [5]): 1.09

COc1ccc(/C=C/C(=O)C2(C(=O)/C=C/c3ccc(OC)c(OC)c3)CCCCC2)cc1OC
IRF Lucia reporter activity (RAW-Dual [3]; [5]): 0.15

COc1ccc(/C=C/C(=O)C2(C(=O)/C=C/c3ccc(OC)c(OC)c3)CCCCC2)cc1OC (library stock concentration (final ~1000-fold dilution): 10 mM)
IRF Lucia reporter activity (RAW-Dual [2]; [4]): 0.0112
IRF Lucia reporter activity (RAW-Dual [2]; agonist: LPS (TLR4) 0.1 ug/mL): 0.256
